Measurements taken from PubChem BioAssay AID686978 (National Center for Advancing Translational Sciences (NCATS), 2013).
In all, about 420,000 compounds went through this assay and about 64,000 (15%) were called active. This list was built around the results that the source calls inconclusive (neither active nor inactive); the mix of calls is not that of the screen. Calls follow the shape of the dose curve; as a rule, active = well fitted inhibition curve with a large enough effect; inconclusive = small, poorly fitted or top-dose-only effect; inactive = flat fitted curve, though single readings scatter. No potency is given beside an inconclusive call; the fits are too rough.

test: qHTS for Inhibitors of human tyrosyl-DNA phosphodiesterase 1 (TDP1): qHTS in cells in absence of CPT; settings: DT40 Tdp1-/- hTDP1 cells, no CPT, ATP luminescence, 48 h; activity change, negative = growth inhibition: at 46.2 µM (top of the series) unless noted; also: nearly all actives have a fitted effect of over 55% in size
How it was run: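 Readout: luminescence from CellTiter-Glo after 30 min in the dark at RT. Cells: DT40 Tdp1-/- with stable hTDP1, 400/well. Exposure: compounds alone, ≥48 hr, 37 °C.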
% is scaled to controls: 0 for no effect and ±100 for the full control effect; potency is read from the fitted curve at half-maximal effect; tags tell the direction and shape of the fitted curve.

Row | SMILES | Potency | activity change, negative = growth inhibition
1 | COc1ccc(C2CC(=O)c3sc(NC(C)=O)nc3C2)cc1 (stereo not given) | inconclusive [inhibitor, single point] | 
2 | CCOc1ccc(Oc2ccc(Cl)cc2NC(=O)CCNC(C)=O)cc1 | inconclusive [inhibitor, single point] | 
3 | CSc1nc(C)cc(SCC(=O)N/N=C/c2ccccc2)n1 |  | inactive: -27%
4 | COC(=O)c1sc(Nc2ccccc2)nc1C |  | inactive: -10.4%
5 | CC(C)C(=O)NCCCc1ccccc1 |  | inactive: -8.01%
6 | Cc1ccc2oc(=O)c(/C=C(\O)c3cccs3)nc2c1 | inconclusive [inhibitor, partial curve] | 
7 | O=C(c1ccccc1)c1ccc2nc(Nc3ccccc3)c3nncn3c2c1 | inconclusive [inhibitor, single point] | 
8 | O=C(COC(=O)CSc1ccc(Cl)cc1)Nc1ccc2[nH]c(=O)[nH]c2c1 | inconclusive [inhibitor, full curve, poor fit] | 
9 | CCCCCCN1C[C@H](O)[C@@H](n2cc(C3CC3)nn2)C[C@@H]1c1ccc(OC)cc1 | inconclusive [inhibitor, single point] | 
10 | Cc1noc(C)c1C(=O)N1CCN(c2ccc(OCc3ccccc3)cc2)CC1 | active: 16.4 µM | 
11 | CCN(CC)S(=O)(=O)c1ccc(/C=C/C(=O)Nc2ccc(N3CCOCC3)cc2)cc1 | active: 20.6 µM | 
12 | CC1(c2ccccc2)O[C@@H]2C[C@H]3[C@@H]4CCC5=CC(=O)C=C[C@]5(C)[C@@]4(F)[C@@H](O)C[C@]3(C)[C@]2(C(=O)CO)O1 (stereo not given in full) | inconclusive [inhibitor, single point] | 
13 | COc1cc2ccccc2cc1C(=O)Nc1cc(C)ccn1 | inconclusive [inhibitor, single point] | 
14 | O=c1c2c(nc3n1CCS3)c1cc(F)ccc1n2Cc1cc(=O)n2cc(Cl)ccc2n1 |  | inactive: -1.04%
15 | Nc1[nH]c(C(=O)c2ccccc2)c(-c2ccc(Br)cc2)c1C(=O)NC1CC1 |  | inactive: -9.87%
16 | COc1ccc(CN2CCN(Cc3cc4ccccc4o3)CC2CCO)cc1C (stereo not given) | inconclusive [inhibitor, single point] | 
17 | O=C(Cn1ccnc1)c1ccc(Cl)cc1 |  | inactive: 17.7%
18 | Cn1c(=O)cc(SCC(=O)Nc2cccnc2)c2ccccc21 | inconclusive [inhibitor, single point] | 
19 | O=C(COc1ccccc1-c1ccccc1)NCc1cccc(Cl)c1 | inconclusive [inhibitor, single point] | 
20 | CCOc1ccccc1C(=O)Nc1ccc(S(=O)(=O)N2CCOCC2)cc1 | inconclusive [inhibitor, single point] | 
21 | COc1ccc([C@@H]2CC=C(C(=O)O)[C@H](c3ccc(Br)cc3)N2S(=O)(=O)c2ccccc2C)cc1 | inconclusive [inhibitor, single point] | 
22 | O=S(=O)(NCC1CCCO1)c1ccc(Oc2ccccc2)cc1 (stereo not given) | inconclusive [inhibitor, single point] | 
23 | CCOC(=O)C1CCCN(C2=NC(=O)/C(=C/c3ccc(O)c(OC)c3)S2)C1 (stereo not given) | inconclusive [inhibitor, single point] | 
24 | NC(=O)CSc1oc(-c2cccs2)nc1S(=O)(=O)c1ccc(Br)cc1 | inconclusive [inhibitor, full curve] | 

Row | SMILES | Potency | activity change, negative = growth inhibition
25 | Cc1cccc2nc(CSc3nc4ccccc4[nH]3)cn12 |  | inactive: -14.9%
26 | COc1ccc(NC(=O)N(C)C[C@H]2OCCCC[C@@H](C)Oc3ccc(N(C)C)cc3C(=O)N([C@H](C)CO)C[C@@H]2C)cc1 | inconclusive [inhibitor, partial curve] | 
27 | COCCCn1c(SCC(=O)n2c(C)c(C)c3ccccc32)nnc1-c1ccoc1C | inconclusive [inhibitor, single point] | 
28 | CCCCn1c(N)c(N(CC)C(=O)c2ccccc2F)c(=O)[nH]c1=O |  | inactive: 0.423%
29 | O=C(Nc1cccc(Cl)c1)C1CCN(S(=O)(=O)Cc2ccccc2)CC1 | inconclusive [inhibitor, single point] | 
30 | CC(=O)c1ccc2c(c1)N(C)c1ccccc1S2 |  | inconclusive: -31.5% [inhibitor]
31 | O=C(c1ccccc1)N1C(=O)C(c2ccccc2)Oc2ccccc21 (stereo not given) |  | inactive: -11.4%
32 | O=C(/C=C/c1c(Cl)cccc1Cl)NCCc1ccccc1 | inconclusive [inhibitor, partial curve] | 
33 | Cc1cc(F)ccc1NC(=O)C1CCN(S(=O)(=O)c2ccc3c(c2)CCCC(=O)N3)CC1 |  | inconclusive: -30.2% [inhibitor]
34 | Cc1cc(Oc2ccccc2)nc(-c2ccccc2)n1 |  | inactive: -10.9%
35 | CC(C)(C)NC(=O)CN(Cc1ccc(F)cc1)C(=O)Cn1nnc(-c2ccc(F)cc2)n1 | inconclusive [inhibitor, single point] | 
36 | CC1=C(C(=O)OC(C)C)C(c2cccc(F)c2)N2C(=O)C(C)SC2=N1 (stereo not given) | inconclusive [inhibitor, partial curve] | 
37 | C=CCNS(=O)(=O)c1ccc2c(c1)n(C)c(=O)n2C |  | inactive: -0.51%
38 | COC(=O)c1ccc2nc(NC(=O)C(C)C)sc2c1 | inconclusive [inhibitor, partial curve] | 
39 | Cn1nc(-c2ccccc2F)c2cc(C(=O)Nc3cc(F)ccc3F)sc21 | inconclusive [inhibitor, partial curve] | 
40 | O=C(c1cnc2c(c1)COc1ccccc1-2)c1ccccc1O | inconclusive [inhibitor, single point] | 
41 | Cc1nc(C)c(C(=O)OCC(=O)Nc2ccc(C)c(C)c2)s1 | inconclusive [inhibitor, single point] | 
42 | COc1ccc(/C=N/NC(=O)C(C)N(c2ccc(OC)cc2)S(C)(=O)=O)cc1 (stereo not given) | inconclusive [inhibitor, single point] | 
43 | Cc1ccccc1Cn1cc(CCC(=O)NCc2cccc(Br)c2)c2ccccc21 | inconclusive [inhibitor, single point] | 
44 | COc1ccc(C)cc1NC(=O)c1sc2ncn(CC(=O)N3CCCCC3)c(=O)c2c1C |  | inactive: -10.4%
45 | NCCc1nnc(SCc2c(F)cccc2Cl)o1 |  | inconclusive: -26.4% [inhibitor]
46 | CCc1nnc(NC(=O)CCC(=O)N2CCN(c3ccccn3)CC2)s1 |  | inconclusive: -30.5% [inhibitor]
47 | O=c1ccc(-c2nc3ccccc3n2C(CCc2ccccc2)c2nc3ccccc3[nH]2)c[nH]1 (stereo not given) | inconclusive [inhibitor, single point] | 
48 | O=C(Cn1c(=O)c(C(F)(F)F)nc2ccccc21)Nc1ccc(Br)cc1F |  | inactive: 5.18%

Row | SMILES | Potency | activity change, negative = growth inhibition
49 | COc1cccc(C2(CC(=O)N3CCC(c4nc5ccccc5o4)CC3)CC(=O)N(C)C2=O)c1 (stereo not given) |  | inactive: 0.67%
50 | Cn1c(=O)c2c(SCCN3CCOCC3)nc(C3CCCC3)nc2n(C)c1=O | active: 20.6 µM | 
51 | c1ccc(-c2ccnc3nc(-n4cccc4)nn23)cc1 |  | inactive: -27.3%
52 | O=C(NCc1ccccc1)c1ccc2c(c1)N(Cc1ccccc1)C(=O)c1ccccc1S2(=O)=O | inconclusive [inhibitor, partial curve] | 
53 | CC(C)c1cnc2c(c1SCC(=O)c1ccccc1)c(=O)n(C)c(=O)n2C | active: 13 µM | 
54 | Cc1ccc(NC(=O)CN2CCC(C(=O)c3ccc4c(c3)OCCO4)CC2)cc1 |  | inconclusive: -30.8% [inhibitor]
55 | CCCOc1ccccc1C1C(C(=O)OC)=CN(C(C)C)C=C1C(=O)OC |  | inactive: -23.2%
56 | COc1ccc(S(=O)(=O)NCC(c2ccco2)N2CCN(c3ccc(F)cc3)CC2)cc1 (stereo not given) | inconclusive [inhibitor, single point] | 
57 | Cc1ccccc1-n1cc(CNC(=O)CN2Cc3ccccc3OC(C)C2)cn1 (stereo not given) | inconclusive [inhibitor, single point] | 
58 | COc1ccc2[nH]cc(CCNc3ncncc3-c3ccoc3)c2c1 | active: 7.31 µM | 
59 | O=C(Nc1cccc(C(F)(F)F)c1)C1CCN(S(=O)(=O)c2ccc(N3CCCC3=O)cc2)CC1 | active: 2.06 µM | 
60 | COc1ccc2c(c1OC)c(=O)n1c3ccc(OC(C)C(=O)NCCCN4CCOCC4)cc3c3ccnc2c31 (stereo not given) | active: 6.51 µM | 
61 | CC(C)(C)NC(=O)CSc1nc(-c2ccc(F)cc2)cc(C(F)(F)F)n1 | active: 18.4 µM | 
62 | CCN1C(=O)[C@H]2[C@@H](c3ccc(SC4CCCCC4)cc3)N[C@@](CC(C)C)(C(=O)OC)[C@H]2C1=O | active: 20.6 µM | 
63 | O=C(CN(C1CCCCC1)S(=O)(=O)c1ccc(Br)cc1)NCc1ccncc1 | inconclusive [inhibitor, single point] | 
64 | COc1ccc(Cc2nc3ccc(C(=O)NCCc4ccc(OC)c(OC)c4)cc3o2)cc1 | inconclusive [inhibitor, partial curve, poor fit] | 
65 | COc1cccc(NC(=O)CN(C)C(=O)CNC(=O)c2ccc(Oc3ccccc3)cc2)c1 | inconclusive [inhibitor, partial curve] | 
66 | Cc1cc(C)cc(NC(c2nnc(-c3cccc(F)c3)o2)c2ccc(F)cc2Cl)c1 (stereo not given) | inconclusive [inhibitor, single point] | 
67 | O=C(NCCCSc1ccccc1)c1cccnc1 |  | inactive: 0.0519%
68 | CC(C)(C)n1cnc2cc(NS(=O)(=O)c3ccccc3)ccc21 | inconclusive [inhibitor, single point] | 
69 | CCCCCC(=O)NC(=S)Nc1cccc(-c2nc3ncccc3o2)c1 |  | inactive: 0.181%
70 | O=C(CSc1nnc(-c2cccs2)n1C1CC1)NC1CCS(=O)(=O)C1 (stereo not given) |  | inactive: 8.28%
